Binding data for three molecules are collected here from publication PMC10163088.

Sequences of proteins named here, by UniProt entry; tags and fusion partners are left off.
UniProt P26343: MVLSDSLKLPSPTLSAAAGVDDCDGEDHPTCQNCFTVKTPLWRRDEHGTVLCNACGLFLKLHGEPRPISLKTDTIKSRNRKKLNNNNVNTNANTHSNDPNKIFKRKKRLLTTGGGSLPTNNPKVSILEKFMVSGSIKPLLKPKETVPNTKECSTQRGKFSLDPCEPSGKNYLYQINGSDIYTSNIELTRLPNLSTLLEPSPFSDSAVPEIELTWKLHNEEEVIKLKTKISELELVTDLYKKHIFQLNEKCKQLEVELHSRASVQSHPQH
UniProt P16649: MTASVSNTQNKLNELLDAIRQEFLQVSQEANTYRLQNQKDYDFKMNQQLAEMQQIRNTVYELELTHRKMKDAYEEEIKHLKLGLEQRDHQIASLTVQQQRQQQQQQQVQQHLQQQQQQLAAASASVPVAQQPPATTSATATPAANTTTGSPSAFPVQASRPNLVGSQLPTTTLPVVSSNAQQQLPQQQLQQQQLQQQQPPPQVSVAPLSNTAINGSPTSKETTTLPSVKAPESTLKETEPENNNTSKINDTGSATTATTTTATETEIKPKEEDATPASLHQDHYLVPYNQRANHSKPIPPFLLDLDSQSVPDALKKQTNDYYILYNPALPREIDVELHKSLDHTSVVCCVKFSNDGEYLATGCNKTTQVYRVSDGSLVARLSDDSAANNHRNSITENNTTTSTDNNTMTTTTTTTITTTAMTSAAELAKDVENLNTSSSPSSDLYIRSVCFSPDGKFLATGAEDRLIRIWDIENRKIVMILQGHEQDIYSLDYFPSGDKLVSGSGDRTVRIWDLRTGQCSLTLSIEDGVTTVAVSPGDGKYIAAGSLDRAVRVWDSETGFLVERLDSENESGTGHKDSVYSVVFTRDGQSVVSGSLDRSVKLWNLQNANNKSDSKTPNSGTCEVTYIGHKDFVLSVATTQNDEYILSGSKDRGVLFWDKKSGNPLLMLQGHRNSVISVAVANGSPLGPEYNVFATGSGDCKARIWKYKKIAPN
UniProt P22579: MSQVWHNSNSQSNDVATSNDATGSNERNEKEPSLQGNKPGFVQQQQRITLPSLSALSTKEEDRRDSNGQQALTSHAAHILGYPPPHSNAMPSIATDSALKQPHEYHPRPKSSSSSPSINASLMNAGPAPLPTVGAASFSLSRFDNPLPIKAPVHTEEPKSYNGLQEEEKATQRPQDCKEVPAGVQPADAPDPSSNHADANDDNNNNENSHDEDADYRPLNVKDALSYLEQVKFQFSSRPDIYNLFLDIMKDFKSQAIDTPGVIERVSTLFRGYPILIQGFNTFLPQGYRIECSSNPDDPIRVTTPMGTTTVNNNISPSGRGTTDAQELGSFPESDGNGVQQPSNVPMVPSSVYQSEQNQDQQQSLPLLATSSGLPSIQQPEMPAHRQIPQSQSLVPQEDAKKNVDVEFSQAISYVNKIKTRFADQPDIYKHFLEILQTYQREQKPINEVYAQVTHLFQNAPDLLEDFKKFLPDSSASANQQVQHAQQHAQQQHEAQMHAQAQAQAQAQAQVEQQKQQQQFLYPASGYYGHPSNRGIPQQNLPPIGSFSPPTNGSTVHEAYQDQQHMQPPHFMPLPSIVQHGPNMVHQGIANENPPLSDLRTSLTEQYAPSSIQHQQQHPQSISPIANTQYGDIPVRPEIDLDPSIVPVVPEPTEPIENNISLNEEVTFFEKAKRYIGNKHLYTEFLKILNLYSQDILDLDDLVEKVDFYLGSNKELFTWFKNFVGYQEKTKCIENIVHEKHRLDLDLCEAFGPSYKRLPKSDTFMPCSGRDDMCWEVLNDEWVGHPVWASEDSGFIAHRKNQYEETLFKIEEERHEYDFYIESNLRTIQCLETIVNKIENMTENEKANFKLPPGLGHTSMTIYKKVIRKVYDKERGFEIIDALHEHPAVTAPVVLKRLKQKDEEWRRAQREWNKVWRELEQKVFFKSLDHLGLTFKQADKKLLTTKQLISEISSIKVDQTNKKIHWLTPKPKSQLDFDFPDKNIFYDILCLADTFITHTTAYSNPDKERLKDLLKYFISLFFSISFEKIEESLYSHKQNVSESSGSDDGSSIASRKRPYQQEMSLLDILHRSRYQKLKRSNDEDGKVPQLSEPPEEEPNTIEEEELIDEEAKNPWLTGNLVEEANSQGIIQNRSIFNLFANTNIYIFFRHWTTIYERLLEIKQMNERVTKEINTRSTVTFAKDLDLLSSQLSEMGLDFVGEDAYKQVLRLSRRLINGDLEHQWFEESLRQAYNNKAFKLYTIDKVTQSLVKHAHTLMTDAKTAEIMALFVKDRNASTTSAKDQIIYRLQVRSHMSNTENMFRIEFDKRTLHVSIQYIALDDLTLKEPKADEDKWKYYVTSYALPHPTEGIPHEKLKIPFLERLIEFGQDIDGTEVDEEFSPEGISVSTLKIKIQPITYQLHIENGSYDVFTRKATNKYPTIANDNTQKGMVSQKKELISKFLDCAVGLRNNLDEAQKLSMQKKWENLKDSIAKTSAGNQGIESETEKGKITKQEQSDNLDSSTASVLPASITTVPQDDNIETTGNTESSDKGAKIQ

Results are given in words; binding and its absence hold for the method and conditions named. In cells and extracts the contact can be indirect. Some entries that bind do so weakly or less than the wild type. For part of these data: Where a sequence is shown, tags or fusion partners need not be part of it.

Common to all, as to assay: pull-down; GST fusions of repressors (full-length or length variants) immobilised on GSH sepharose, incubated with bacterial total protein extracts containing HA-tagged Sin3, Cyc8 or Tup1 (or Tup1 length variants); elution with free GSH, anti-HA blot (Figs. 1, 3, 4, 5); only the target purified
In test [1] the target is T1, GST-Yox1 (full-length) (S. cerevisiae) (UniProt P34161).
T1 sequence: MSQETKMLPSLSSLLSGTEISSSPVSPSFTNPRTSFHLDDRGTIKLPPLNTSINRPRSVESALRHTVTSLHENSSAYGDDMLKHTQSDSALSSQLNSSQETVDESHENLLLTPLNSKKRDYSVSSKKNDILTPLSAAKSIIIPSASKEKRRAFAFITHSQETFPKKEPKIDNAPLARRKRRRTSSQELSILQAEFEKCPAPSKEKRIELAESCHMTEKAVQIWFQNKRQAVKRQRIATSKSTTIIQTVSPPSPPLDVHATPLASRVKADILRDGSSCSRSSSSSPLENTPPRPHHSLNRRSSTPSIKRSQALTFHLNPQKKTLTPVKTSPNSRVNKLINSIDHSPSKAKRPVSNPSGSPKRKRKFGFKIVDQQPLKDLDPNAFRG

Test [2] addresses T2, GST-Xbp1 (full-length) (S. cerevisiae) (UniProt P40489).
T2 sequence: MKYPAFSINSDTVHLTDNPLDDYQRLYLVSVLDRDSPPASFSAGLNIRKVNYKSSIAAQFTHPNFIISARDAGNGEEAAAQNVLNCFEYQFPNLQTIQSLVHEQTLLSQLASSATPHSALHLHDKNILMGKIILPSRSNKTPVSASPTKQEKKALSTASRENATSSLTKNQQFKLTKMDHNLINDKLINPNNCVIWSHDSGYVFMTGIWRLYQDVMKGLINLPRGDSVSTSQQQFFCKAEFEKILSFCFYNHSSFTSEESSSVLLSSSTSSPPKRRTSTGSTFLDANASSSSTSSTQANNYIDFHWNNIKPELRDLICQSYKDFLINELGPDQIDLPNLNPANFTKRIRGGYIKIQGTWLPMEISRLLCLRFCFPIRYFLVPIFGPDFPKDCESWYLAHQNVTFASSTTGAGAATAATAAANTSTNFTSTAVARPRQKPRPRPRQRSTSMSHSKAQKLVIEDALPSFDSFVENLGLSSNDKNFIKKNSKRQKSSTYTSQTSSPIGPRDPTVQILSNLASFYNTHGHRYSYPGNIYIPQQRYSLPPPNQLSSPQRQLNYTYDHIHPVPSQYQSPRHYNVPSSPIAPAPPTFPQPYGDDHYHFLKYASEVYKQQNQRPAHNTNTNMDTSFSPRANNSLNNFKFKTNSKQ

Test [3] deals with GST-Dal80 (full-length) (S. cerevisiae) (UniProt P26343).
The target of test [4] is T3, GST-Cti6 (full-length) (S. cerevisiae) (UniProt Q08923).
T3 sequence: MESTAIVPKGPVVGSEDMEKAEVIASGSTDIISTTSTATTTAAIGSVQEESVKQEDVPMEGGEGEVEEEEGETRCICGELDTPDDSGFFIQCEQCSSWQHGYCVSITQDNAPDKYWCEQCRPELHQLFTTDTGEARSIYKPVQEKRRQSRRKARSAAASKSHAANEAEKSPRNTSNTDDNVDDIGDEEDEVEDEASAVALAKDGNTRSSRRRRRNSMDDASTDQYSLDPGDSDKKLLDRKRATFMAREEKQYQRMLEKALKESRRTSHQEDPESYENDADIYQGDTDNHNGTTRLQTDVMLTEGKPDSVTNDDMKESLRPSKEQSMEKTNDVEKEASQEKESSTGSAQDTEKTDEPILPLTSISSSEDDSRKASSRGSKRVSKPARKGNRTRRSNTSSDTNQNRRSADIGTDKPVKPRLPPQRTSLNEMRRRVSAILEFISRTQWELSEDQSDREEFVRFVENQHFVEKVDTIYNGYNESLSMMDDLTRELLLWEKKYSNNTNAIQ

Test [5] has as its target T4, GST-Ume6 aa 508-594 (S. cerevisiae).
T4 sequence: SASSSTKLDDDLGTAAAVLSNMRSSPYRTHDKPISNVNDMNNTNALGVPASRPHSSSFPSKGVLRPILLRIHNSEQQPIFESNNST

Test [6] deals with T5, GST-Mth1 (full-length) (S. cerevisiae) (UniProt P35198).
T5 sequence: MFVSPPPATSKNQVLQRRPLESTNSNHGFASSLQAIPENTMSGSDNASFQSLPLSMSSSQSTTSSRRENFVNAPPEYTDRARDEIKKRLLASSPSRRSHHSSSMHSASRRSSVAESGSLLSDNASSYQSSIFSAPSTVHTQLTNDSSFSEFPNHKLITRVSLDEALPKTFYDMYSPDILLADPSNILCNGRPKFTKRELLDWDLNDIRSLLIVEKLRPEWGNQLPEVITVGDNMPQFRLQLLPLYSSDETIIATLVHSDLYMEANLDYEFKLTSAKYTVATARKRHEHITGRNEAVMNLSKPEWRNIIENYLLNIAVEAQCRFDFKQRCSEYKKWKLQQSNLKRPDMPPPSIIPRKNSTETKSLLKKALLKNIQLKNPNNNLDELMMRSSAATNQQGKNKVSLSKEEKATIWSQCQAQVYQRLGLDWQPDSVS

As to “HA3-Tup1 (full-length; pFK76) (from UniProt P16649 1-713)”, the binding result in test [1] is “binds”; in test [2], “no binding”; in test [3], “binds”; in test [4], “binds”; in test [5], “binds”; in test [6] it was “no binding”.
“HA3-Sin3 (full-length, aa 1-1536; pSW11) (from UniProt P22579 1-1536)”: the binding result in test [1] is given as “binds”; in test [2], “binds”; in test [3], “binds”; in test [4] it was “binds”; in test [5], “binds”; in test [6], “no binding”.

B1: HA3-Cyc8 (aa 1-398 with 10 TPR motifs; pFK77) (domain or fragment, UniProt P14922 1-398)
chain: MNPGGEQTIMEQPAQQQQQQQQQQQQQQQQAAVPQQPLDPLTQSTAETWLSIASLAETLGDGDRAAMAYDATLQFNPSSAKALTSLAHLYRSRDMFQRAAELYERALLVNPELSDVWATLGHCYLMLDDLQRAYNAYQQALYHLSNPNVPKLWHGIGILYDRYGSLDYAEEAFAKVLELDPHFEKANEIYFRLGIIYKHQGKWSQALECFRYILPQPPAPLQEWDIWFQLGSVLESMGEWQGAKEAYEHVLAQNQHHAKVLQQLGCLYGMSNVQFYDPQKALDYLLKSLEADPSDATTWYHLGRVHMIRTDYTAAYDAFQQAVNRDSRNPIFWCSIGVLYYQISQYRDALDAYTRAIRLNPYISEVWYDLGTLYETCNNQLSDALDAYKQAARLDVNN
With B1, the binding result is on record as “binds” in test [1]; “no binding” in test [2]; “binds” in test [3]; “binds” in test [4]; “binds” in test [5]; “no binding” in test [6].
